# Hit rate of the full screen: of about 310,000 compounds, about 14,000 (4.5%) showed an effect of 50% or more. Effects have a minus sign here. This is one part of the list.
# Target: human ether-à-go-go-related gene (hERG) potassium channel (human, UniProt Q12809)
# Experiment: primary screen, population patch clamp on CHO cells stably expressing hERG
# 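Note: peak tail current of the secondary pulse compared with the same well before compound.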
# Chain of human ether-à-go-go-related gene (hERG) potassium channel (Q12809 whole entry, looked up): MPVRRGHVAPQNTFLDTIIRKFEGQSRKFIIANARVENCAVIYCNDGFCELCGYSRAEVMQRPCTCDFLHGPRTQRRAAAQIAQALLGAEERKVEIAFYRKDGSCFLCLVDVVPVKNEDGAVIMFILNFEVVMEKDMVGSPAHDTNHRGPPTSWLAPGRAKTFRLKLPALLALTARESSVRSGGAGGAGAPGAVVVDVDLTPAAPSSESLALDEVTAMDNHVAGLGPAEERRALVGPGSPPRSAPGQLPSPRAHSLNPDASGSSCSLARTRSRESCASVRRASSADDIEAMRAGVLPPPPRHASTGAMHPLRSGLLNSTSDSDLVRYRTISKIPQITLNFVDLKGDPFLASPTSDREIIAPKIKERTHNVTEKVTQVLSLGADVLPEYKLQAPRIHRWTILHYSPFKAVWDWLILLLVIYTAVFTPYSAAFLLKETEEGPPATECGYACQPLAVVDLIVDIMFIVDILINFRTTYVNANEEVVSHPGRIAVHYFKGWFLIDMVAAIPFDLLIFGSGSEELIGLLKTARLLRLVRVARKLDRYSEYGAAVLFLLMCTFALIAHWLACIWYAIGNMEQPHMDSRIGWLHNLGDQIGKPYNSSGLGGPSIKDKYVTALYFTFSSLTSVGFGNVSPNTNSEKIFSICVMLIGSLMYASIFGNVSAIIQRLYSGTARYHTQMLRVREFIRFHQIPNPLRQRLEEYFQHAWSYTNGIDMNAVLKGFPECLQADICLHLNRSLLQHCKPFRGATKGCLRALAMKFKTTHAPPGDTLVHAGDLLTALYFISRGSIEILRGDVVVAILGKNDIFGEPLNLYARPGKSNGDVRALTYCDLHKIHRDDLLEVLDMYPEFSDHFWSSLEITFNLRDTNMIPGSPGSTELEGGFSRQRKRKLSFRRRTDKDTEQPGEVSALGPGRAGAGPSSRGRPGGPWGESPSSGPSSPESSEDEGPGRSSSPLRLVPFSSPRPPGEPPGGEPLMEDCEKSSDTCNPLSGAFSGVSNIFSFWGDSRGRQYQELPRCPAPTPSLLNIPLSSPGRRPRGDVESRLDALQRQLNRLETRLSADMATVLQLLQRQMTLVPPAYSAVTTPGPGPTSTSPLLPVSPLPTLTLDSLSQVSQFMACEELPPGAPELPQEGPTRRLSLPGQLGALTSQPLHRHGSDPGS
row,Structure (SMILES),"hERG current change (%, negative = inhibition) at 10uM [%]"
1,Cc1cc(C)n2nc(C(=O)OCC(=O)c3ccc(F)cc3)nc2n1,-3.27
2,O=C(NCc1ccccn1)C1CCN(S(=O)(=O)c2cccs2)CC1,-15.8
3,Cc1ccccc1NC(=O)OCCN1CCN(Cc2ccccc2)CCC1=O,-5.9
4,CCN(CC)C(=O)c1cc(-c2ccccc2OC)on1,-4.66
5,CCc1cccc(CC)c1NC(=S)/C(=C(\[O-])c1ccc(Cl)s1)[n+]1ccccc1,-10.1
6,Clc1ccc(Cc2nc(-c3ccncc3)no2)cc1,-9.82
7,COc1cc(/C=C(\C#N)C(=O)Nc2ccc(C(=O)O)cc2)ccc1OC(=O)c1cccc(F)c1,11.1
8,O=C1COc2ccc(C(=O)CSc3nnc(-c4cccs4)n3Cc3ccccc3)cc2N1,-27
9,COc1ccc(-c2csc3nc(-c4ccccc4F)oc(=O)c23)cc1,11
10,CC(=O)Nc1ccc2nc(-c3ccc(Br)o3)[nH]c2c1,-14
11,CCCN(CC(=O)Nc1ccccc1OC)C(=O)C1CCCC1,-4.11
12,CCCCCCn1c(N2CCN(c3ccccc3)CC2)nc2c1c(=O)[nH]c(=O)n2C,-32.6
13,CCOC(=O)CSc1nnc(CNc2ccc(Cl)cc2)n1-c1ccccc1,11.2
14,CC(=O)c1sc(NC(=O)c2cccc3ccccc23)nc1C,8.53
15,Cc1ccc(NC(=O)Nc2cc(Cl)ccc2C2COC(=O)C2=N)cc1 (centres unmarked),27.9
16,Cc1nc(-c2ccc(S(=O)(=O)N3CCOCC3)cc2)cs1,12.8
17,CC1c2cc3c(cc2CCN1S(=O)(=O)c1ccccc1)OCCCO3 (centres unmarked),-20
18,CCc1c(C(=O)Nc2ccc(OC)c(Cl)c2)[nH]c(C)c1C(C)=O,-0.65
19,Cc1ccc(NS(=O)(=O)c2ccc3c(c2)NC(=O)C(C)C(=O)N3)cc1C (centres unmarked),2.46

row,Structure (SMILES),"hERG current change (%, negative = inhibition) at 10uM [%]"
1,Nc1ncnc(Sc2ccccc2)c1[N+](=O)[O-],8.7
2,Cc1cc(NC(=O)CSc2ccnc(=O)[nH]2)no1,-0.802
3,COc1ccc(-c2nn3c(-c4ccccc4)nnc3s2)cc1,10.7
4,CCc1ccc(-c2cc(C)no2)cc1S(=O)(=O)N1CCN(c2ccccc2)CC1,3.41
5,COC(=O)c1cccc(NC(=O)CSCc2ccccc2)c1,12.1
6,COc1ccccc1NS(=O)(=O)c1ccc(NC(=O)c2ccncc2)cc1,-22.1
7,CCCNc1c(NS(=O)(=O)c2cccs2)c(=O)oc2ccccc12,-24.6
8,COc1cccc2cc3c(=O)oc4ccccc4c3nc12,-5.61
9,CN1C(=O)C(O)(CC(=O)/C=C/c2ccco2)c2cc(Br)ccc21 (centres unmarked),-14.4
10,CCOc1cc(C=O)c(Br)cc1OC1CCCC1,11.3
11,Cc1cc(CNC(=O)CC2C(=O)NCCN2Cc2ccccc2)nn1C (centres unmarked),13.8
12,COc1ccccc1N1CCN(Cc2cn[nH]c2-c2ccc(F)cc2)CC1,-55.3
13,Cc1cccc(N2CC(C(=O)OCc3ccc([N+](=O)[O-])cc3)CC2=O)c1 (centres unmarked),-64
14,COc1ccc(N2C(=O)CCC(C(=O)N3CCOCC3)C2c2ccc(F)cc2)cc1 (centres unmarked),0.595
15,Cc1ccn2c(CN(C)CCn3nc(C)cc3C)c(C(=O)N3CCCCCC3)nc2c1,4.86
16,COc1ccc(NC(=O)c2ccc3c(c2)NC(=O)CS3)cc1,17.1
17,Nc1ccc(Oc2c(Cl)cccc2Cl)nc1,-9.23
18,COc1ccc(C)cc1S(=O)(=O)n1c([N+](=O)[O-])cnc1C,6.2
19,CC(=O)N1CCN(C(=O)C(Cc2c[nH]c3ccccc23)NC(=O)c2ccccc2Cl)CC1 (centres unmarked),19.1

row,Structure (SMILES),"hERG current change (%, negative = inhibition) at 10uM [%]"
1,COc1ccc2sc(NCc3ccccc3)nc2c1,18.6
2,O=C1NCCCc2nonc21,12.8
3,C#CCOCCOCCOCCNc1nc(N2CCN(C(=O)C(Cc3ccc(O)cc3)n3cc(C(N)C(C)CC)nn3)CC2)nc(N2CCN(C(=O)C(Cc3ccc(O)cc3)n3cc(C(N)C(C)CC)nn3)CC2)n1.Cl (centres unmarked),-13.3
4,CCCC[n+]1ccn(-c2nc3ccccc3nc2[N-]S(=O)(=O)c2ccccc2)c1,-5.32
5,CCC1(C(=O)c2ccccc2)C2c3cc(Br)ccc3OC(=O)C21C(=O)N1CCOCC1 (centres unmarked),-13
6,COC(=O)Cc1c(C)c2ccc(OCc3nn[nH]n3)c(C)c2oc1=O,3.5
7,Cc1cccc(OCC(=O)NCc2n[nH]c(=O)c3ccccc23)c1,-11.7
8,O=C(Cc1cccs1)N1CCN=C1SCc1ccccc1Cl,2.57
9,O=C(CN1C(=O)c2ccccc2C1=O)Oc1ccc(F)cc1,14.5
10,COC(=O)c1sc(NC(=O)c2c(OC)cccc2OC)c(C#N)c1C,15.1
11,CCCCCCC(C)n1cc(C(C)=O)c(=O)[nH]c1=O (centres unmarked),-2.8
12,CC1(C)NC(C)(C)c2nonc2/C1=N\O,-1.78
13,CCN1CCC[C@H]1CNC(=O)c1c(OC)ccc(Br)c1OC.Cl,-12.2
14,CCc1nnc(NC(=O)CSc2nnc(Cc3ccccc3)o2)s1,21.3
15,Fc1cccc(CN2CCN(c3nc4nonc4nc3NC3CC3)CC2)c1,-10.3
16,COc1ccc(-c2cc(C(=O)NC(C(=O)O)C(C)C)c(C)o2)cc1OC (centres unmarked),-1.31
17,COc1ccc(C(=O)Nc2ccnn2C2CCN(C(=O)c3cnsn3)CC2)cc1,-11.5
18,CCCCN1CC(=O)N2[C@H]3c4cc(Cl)ccc4OC[C@@H]3[C@H](C(=O)OCC)[C@]2(C)C1=O,1.74

# Reference: PMC4336329 (PLoS ONE, 2015)
